# Some of the results follow. Sequences were assembled here from the parent chain. Inactive controls read about 0.05.
# B1: TEV protease; numbered along this chain (parent)
# chain: MGESLFKGPRDYNPISSSICHLTNESDGHTTSLYGIGFGPFIITNKHLFRRNNGTLVVQSLHGVFKVKDTTTLQQHLVDGRDMIIIRMPKDFPPFPQKLKFREPQREERICLVTTNFQTKSMSSMVSDTSCTFPSGDGIFWKHWIQTKDGQCGSPLVSTRDGFIVGIHSASNFTNTNNYFTSVPKNFMELLTNQEAQQWVSGWRLNADSVLWGGHKVFMVKPEEPFQPVKEATQL
# Variants of: B1
# Test: raw area under fraction-flipped curve 0-4 h after induction (AUC4h, not background-subtracted), DNA-recorder readout of cleavage of the substrate (dimensionless); higher = more cleavage of the substrate by the protease variant
# Conditions: temperature: 34 °C; time window: 0-4 h after rhamnose induction
# Protocol: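 In vivo DNA recorder in E. coli TOP10(DE3) ΔrhaA at 34 °C. Each TEVp single-site mutant (parent TEVp 0) is paired with a single-site variant of the 7-mer TEVs (canonical ENLYFQ|S). The substrate sits between flexible linkers in a Bxb1-sfGFP-TEVs-SsrA fusion, so cleavage stabilises Bxb1 and speeds flipping of a recombination array, read by NGS. The value is the raw area under the fraction-flipped curve over 0-4 h after rhamnose induction (AUC4h), with ≥20 reads per time point. It is not background-subtracted; inactive controls average about 0.047.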
# 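Also: Bxb1 expression induced with 0.2% (w/v) L-rhamnose at OD600 near 0.5, cultures sampled hourly, flipped fraction per protease–substrate barcode pair counted by paired-end Illumina sequencing.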
Variant,area with substrate ENLYAQS,area with substrate ENLYDQS,area with substrate ENLYEQS,area with substrate ENLYGQS,area with substrate ENLYHQS,area with substrate ENLYIQS,area with substrate ENLYKQS,area with substrate ENLYMQS,area with substrate ENLYNQS,area with substrate ENLYSQS,area with substrate ENLYVQS,area with substrate ENLYYQS,area with substrate ENLYPQS,area with substrate ENLYTQS,area with substrate ENLYQQS,area with substrate ENLYWQS,area with substrate ENLYRQS,area with substrate ENLYLQS,area with substrate ENLYCQS
P96A,0.0703,0.0496,0.0813,0.0699,0.0738,0.131,0.0607,0.0847,0.0673,0.0815,0.071,0.0729,,,,,,,
P96T,0.0621,0.0668,,0.0628,,0.0966,0.0128,,0.0536,,,,,,,,,,
P96W,0.0638,,,0.0495,0.0663,,0.026,0.0617,0.0638,0.0755,0.108,,0.0642,0.0058,,,,,
P96Q,0.0993,0.0631,0.0517,0.107,,,,0.0734,,0.0803,,,0.0616,,0.0506,0.0798,,,
P104C,0.058,0.0666,0.0624,0.0659,0.0622,0.0924,0.062,0.0697,0.0756,0.0707,0.0763,0.067,0.0444,0.0711,0.0592,0.0719,0.0617,,
R102Y,0.0368,,,0.05,0.0481,,0.0263,,0.0451,,0.04,0.0383,0.0267,0.0301,0.0297,,,0.0098,
D69G,0.0832,,0.0656,0.0662,0.061,,,,,,0.0742,,0.0609,,0.0763,0.0721,0.0651,,
D69P,0.0682,0.0627,0.0739,0.0597,0.0614,0.123,0.0487,0.0578,0.0605,0.061,0.0975,0.0621,0.0689,0.0974,0.0673,0.0609,0.0274,,
L73V,0.0686,0.0841,0.056,0.0501,0.0646,0.0956,,0.0791,0.0645,0.0799,,,0.0679,0.0795,0.0648,0.092,0.0547,0.0798,0.0709
G80E,0.0913,,0.0634,0.0749,0.0724,,0.0446,,0.073,0.115,0.17,,0.0653,0.0792,0.0708,0.0899,,,
G80W,0.0828,0.0636,0.0678,0.0635,0.063,0.123,0.0605,0.105,0.0639,0.0677,0.122,0.0711,0.0533,,0.0625,0.0729,,,
G80V,0.0777,0.055,0.0494,0.0349,,0.0912,0.0548,0.0699,0.0673,0.0643,0.101,0.0564,0.0684,,,0.0861,0.0524,,
G80Q,0.0726,0.0655,0.069,0.0679,0.0637,0.122,0.0689,0.0814,0.0625,0.0797,,,0.0744,0.0691,0.0641,0.0719,0.0703,0.0882,
G80D,0.0787,0.0468,0.0853,,0.0815,0.12,0.0661,0.104,0.0586,0.0813,,0.0637,0.074,0.09,0.062,0.0975,0.0716,,0.107
G80I,0.073,0.0528,0.0589,0.0628,0.0679,0.0975,,,0.0209,,0.141,0.0677,,,0.0513,0.0409,0.0462,0.0878,
F101N,0.053,0.042,0.0482,0.0479,0.0475,,0.062,0.0514,0.0504,,0.0502,0.0501,0.0474,,0.0475,0.0313,,,
L77P,0.084,0.0555,0.0561,0.0632,0.0629,0.0799,0.0706,0.0654,0.0403,,0.12,0.0672,0.0675,0.0649,,0.0861,,,0.0798
L77F,0.0605,0.0476,0.0606,0.07,0.0666,0.0606,0.057,0.0647,0.0671,0.0555,0.0711,0.0586,0.0601,0.0611,0.0634,0.0672,0.0641,0.0612,0.0652
V64G,0.05,,0.0698,0.0591,0.0578,,0.0498,,,0.0648,,,,,0.0651,0.0779,,,
T72Q,0.0726,0.0611,,0.0595,,0.138,0.051,0.0724,,,,0.065,0.0761,0.0901,0.06,0.0838,,0.111,
T72K,0.0731,0.0576,0.0648,0.0582,,0.118,0.0503,0.0725,0.0632,0.0707,0.13,0.0743,0.0729,0.0851,0.0827,0.0901,0.0451,0.0758,0.0918
M88V,0.0244,0.0782,0.075,0.0589,,0.149,0.0648,0.0772,0.0742,,,,0.0556,0.0763,,0.114,0.051,,
M88N,0.0525,0.0348,0.0562,,0.0574,0.122,0.0486,0.0625,0.0369,,,,0.0702,,0.0721,0.0688,0.0412,0.073,0.0845
M88T,0.0553,,,0.0642,0.0724,,0.0284,0.0844,0.059,0.0698,,,0.0747,,0.0647,0.0849,,,
Q75N,0.0636,0.0609,0.0539,,0.0636,,,,,,,,,,,0.108,0.0644,,
R81H,0.0681,0.0577,0.0465,,0.0643,0.0901,0.0223,0.0411,0.0642,0.0637,,0.0585,0.0681,0.0483,0.0669,0.0665,0.0551,0.0414,
K68R,0.0785,0.0669,,0.0538,0.0725,0.134,,0.0739,0.0662,0.0638,0.1,,0.0587,0.072,0.0667,,0.0445,,0.0838
